Key:
[1] = target: native A1AT (Zemaira®), purified natively glycosylated alpha-1 antitrypsin preparation, P01009
[2] = target: recombinant human alpha-1 antitrypsin glycoprotein with non-native glycosylation (rA1AT)

native A1AT (Zemaira®), purified natively glycosylated alpha-1 antitrypsin preparation, P01009, sequence (P01009 whole entry, looked up): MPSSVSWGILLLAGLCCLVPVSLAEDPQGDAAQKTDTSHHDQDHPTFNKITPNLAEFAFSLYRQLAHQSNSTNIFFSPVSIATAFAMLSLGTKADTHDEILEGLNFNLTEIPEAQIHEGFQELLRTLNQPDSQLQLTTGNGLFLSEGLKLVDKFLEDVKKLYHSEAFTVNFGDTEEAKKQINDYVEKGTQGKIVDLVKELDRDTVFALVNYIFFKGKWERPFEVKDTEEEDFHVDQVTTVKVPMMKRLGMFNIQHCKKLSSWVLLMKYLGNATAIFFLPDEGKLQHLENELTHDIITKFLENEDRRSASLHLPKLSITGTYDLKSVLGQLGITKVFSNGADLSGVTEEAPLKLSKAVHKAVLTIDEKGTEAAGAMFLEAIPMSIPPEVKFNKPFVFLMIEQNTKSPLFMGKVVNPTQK

B1: Elastase (protein)
chain: VVGGTEAQRNSWPSQISLQYRSGSSWAHTCGGTLIRQNWVMTAAHCVDRELTFRVVVGEHNLNQNDGTEQYVGVQKIVVHPYWNTDDVAAGYDIALLRLAQSVTLNSYVQLGVLPRAGTILANNSPCYITGWGLTRTNGQLAQTLQQAYLPTVDYAICSSSSYWGSTVKNSMVCAGGDGVRSGCQGDSGGPLHCLVNGQYAVHGVTSFVSRLGCNVTRKPTVFTRVSAYISWINNVIASN
For B1, the “elastase activity (N-succinyl-Ala-Ala-Ala-p-nitroanilide substrate, 405 nm)” value [1] was “native A1AT (Zemaira®) inhibited Elastase activity approximately 30% more than did recombinant rA1AT glycoprotein” and the “elastase activity (N-succinyl-Ala-Ala-Ala-p-nitroanilide substrate, 405 nm)” value [2] was “native A1AT (Zemaira®) inhibited Elastase activity approximately 30% more than did recombinant rA1AT glycoprotein”.

Source: patent publication US20210032314
